# According to the supplement of paper PMC8728848:
# Some of the results follow.
# B1: NKR-PIC (Mus musculus) (protein)
# chain: GTGQKPSREKCCVFIQENLNKTTDCSVNLECPQDWLLHRDKCFHVSQVSNTWEEGQADCGRKGATLLLIQDQEELRFLLDSIKEKYNSFWIGLRFTLPDMNWKWINGTTFNSDVLKITGVTENGSCASILGDKVTPESCASDNRWICQKELNHETPSNDSGT
# How the values were obtained:
# Test in all cases: glycan array binding signal (z-score within array); higher = stronger binding
# Details in all cases: glycan notation: IUPAC condensed, linker removed
# [1] = target: Neu5Ac(a2-8)Neu5Ac
# Method in brief: (§1)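 Glycan array binding is given as a within-array Z-score, which can be read as non-binding when negative. The arrays, 3228 of them, came from the Consortium for Functional Glycomics database and were retained only where the protein sequence was available. Z-scores were averaged across arrays of the same protein sequence at different concentrations or buffers and across linkers.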
# [2] = target: Neu5Ac(a2-8)Neu5Ac(a2-3)Gal(b1-3)GalNAc(b1-4)[Neu5Ac(a2-3)]Gal(b1-4)Glc
# Method in brief: as §1
# [3] = target: Neu5Ac(a2-8)Neu5Ac(a2-3)Gal(b1-3)GalNAc(b1-4)[Neu5Ac(a2-8)Neu5Ac(a2-3)]Gal(b1-4)Glc
# Method in brief: as §1
# [4] = target: Neu5Ac(a2-8)Neu5Ac(a2-3)Gal(b1-4)Glc
# Method in brief: as §1
# [5] = target: Neu5Ac(a2-8)Neu5Ac(a2-3)Gal(b1-4)GlcNAc
# Method in brief: as §1
# [6] = target: Neu5Ac(a2-8)Neu5Ac(a2-3)[Gal(b1-3)GalNAc(b1-4)]Gal(b1-4)Glc
# Method in brief: as §1
# [7] = target: Neu5Ac(a2-8)Neu5Ac(a2-3)[GalNAc(b1-4)]Gal(b1-4)Glc
# Method in brief: as §1
# [8] = target: Neu5Ac(a2-8)Neu5Ac(a2-8)Neu5Ac
# Method in brief: as §1
# [9] = target: Neu5Ac(a2-8)Neu5Ac(a2-8)Neu5Ac(a2-3)Gal(b1-4)Glc
# Method in brief: as §1
# [10] = target: Neu5Ac(a2-8)Neu5Ac(a2-8)Neu5Ac(a2-3)[Gal(b1-3)GalNAc(b1-4)]Gal(b1-4)Glc
# Method in brief: as §1
# [11] = target: Neu5Ac(a2-8)Neu5Ac(a2-8)Neu5Ac(a2-3)[GalNAc(b1-4)]Gal(b1-4)Glc
# Method in brief: as §1
# [12] = target: Neu5Ac(a2-8)Neu5Ac(a2-8)Neu5Ac(a2-8)Neu5Ac(a2-3)[GalNAc(b1-4)]Gal(b1-4)Glc
# Method in brief: as §1
# [13] = target: Neu5Ac(a2-8)Neu5Gc(a2-3)Gal(b1-4)GlcNAc
# Method in brief: as §1
# [14] = target: Neu5Ac(b2-6)Gal(b1-4)GlcNAc
# Method in brief: as §1
# [15] = target: Neu5Ac(b2-6)GalNAc
# Method in brief: as §1
# [16] = target: Neu5Ac9Ac(a2-3)Gal(b1-3)GlcNAc
# Method in brief: as §1
# [17] = target: Neu5Ac9Ac(a2-3)Gal(b1-4)GlcNAc
# Method in brief: as §1
# [18] = target: Neu5Ac9Ac(a2-6)Gal(b1-4)GlcNAc
# Method in brief: as §1
# [19] = target: Neu5Gc(a2-3)Gal(b1-3)GlcNAc
# Method in brief: as §1
# [20] = target: Neu5Gc(a2-3)Gal(b1-3)[Fuc(a1-4)]GlcNAc
# Method in brief: as §1
# [21] = target: Neu5Gc(a2-3)Gal(b1-4)Glc
# Method in brief: as §1
# [22] = target: Neu5Gc(a2-3)Gal(b1-4)GlcNAc
# Method in brief: as §1
# [23] = target: Neu5Gc(a2-3)Gal(b1-4)GlcNAc(b1-3)Gal(b1-4)GlcNAc(b1-2)Man(a1-3)[Neu5Gc(a2-3)Gal(b1-4)GlcNAc(b1-3)Gal(b1-4)GlcNAc(b1-2)Man(a1-6)]Man(b1-4)GlcNAc(b1-4)GlcNAc
# Method in brief: as §1
# [24] = target: Neu5Gc(a2-3)Gal(b1-4)[Fuc(a1-3)]GlcNAc
# Method in brief: as §1
# [25] = target: Neu5Gc(a2-6)Gal(b1-4)GlcNAc
# Method in brief: as §1
# [26] = target: Neu5Gc(a2-6)GalNAc
# Method in brief: as §1
# [27] = target: Neu5Gc(a2-8)Neu5Ac(a2-3)Gal(b1-4)GlcNAc
# Method in brief: as §1
# [28] = target: Neu5Gc(a2-8)Neu5Gc(a2-3)Gal(b1-4)GlcNAc
# Method in brief: as §1
# [29] = target: Neu5Gc(a2-8)Neu5Gc(a2-3)Gal(b1-4)GlcNAc(b1-3)Gal(b1-4)GlcNAc
# Method in brief: as §1
# [30] = target: Neu5Gc(a2-8)Neu5Gc(a2-6)Gal(b1-4)GlcNAc
# Method in brief: as §1
# [31] = target: Neu5Gc(b2-6)Gal(b1-4)GlcNAc
# Method in brief: as §1
binder,measurement,setting,value
B1,glycan array binding signal (z-score),[1],-0.32
same,glycan array binding signal (z-score),[2],-0.321
same,glycan array binding signal (z-score),[3],-0.352
same,glycan array binding signal (z-score),[4],-0.342
same,glycan array binding signal (z-score),[5],-0.378
same,glycan array binding signal (z-score),[6],-0.302
same,glycan array binding signal (z-score),[7],-0.318
same,glycan array binding signal (z-score),[8],-0.338
same,glycan array binding signal (z-score),[9],-0.372
same,glycan array binding signal (z-score),[10],-0.372
same,glycan array binding signal (z-score),[11],-0.335
same,glycan array binding signal (z-score),[12],-0.286
same,glycan array binding signal (z-score),[13],-0.282
same,glycan array binding signal (z-score),[14],-0.316
same,glycan array binding signal (z-score),[15],-0.161
same,glycan array binding signal (z-score),[16],-0.361
same,glycan array binding signal (z-score),[17],-0.359
same,glycan array binding signal (z-score),[18],-0.309
same,glycan array binding signal (z-score),[19],-0.264
same,glycan array binding signal (z-score),[20],-0.326
same,glycan array binding signal (z-score),[21],-0.278
same,glycan array binding signal (z-score),[22],-0.264
same,glycan array binding signal (z-score),[23],-0.302
same,glycan array binding signal (z-score),[24],-0.403
same,glycan array binding signal (z-score),[25],-0.34
same,glycan array binding signal (z-score),[26],-0.216
same,glycan array binding signal (z-score),[27],-0.409
same,glycan array binding signal (z-score),[28],-0.369
same,glycan array binding signal (z-score),[29],-0.408
same,glycan array binding signal (z-score),[30],-0.304
same,glycan array binding signal (z-score),[31],-0.177
